Measurements: the supplement of paper PMC6206098
± gives the uncertainty stated by the source. Shown are siRNA guide strands that differ only in the seed, positions 2 to 7.

Assays:
[1] = tested on: 3LL; experiment: cell viability relative to siNT1 control; higher = less toxic; settings: concentration: 10 nM; 96 h; Mus musculus;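 also: Luminescence-based viability of cells reverse transfected in 384-well plates with lipid-complexed siRNAs built on a non-toxic 19mer backbone whose passenger strand carries 2′-O-methyl groups at positions 1 and 2, triplicates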
[2] = tested on: H460; experiment: cell viability relative to lipid-only control; HeyA8 human ovarian and H460 human lung cancer; M565 mouse liver and 3LL mouse lung cancer; siNT1 is a non-toxic control siRNA; higher = less toxic; settings: concentration: 10 nM; 96 h; Homo sapiens
Experimental: (§1)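 Arrayed screen of 4096 siRNA duplexes, each carrying one of all possible 6mer seeds at guide-strand positions 2-7 in a fixed neutral 19mer scaffold (constant flanks: U at position 1, then ACAUGUAAACCA, plus a 3' AA overhang). The passenger strand is 2'-O-methylated at positions 1-2 so only the guide strand loads into RISC. Duplexes were reverse-transfected at 10 nM with RNAiMAX in triplicate in 384-well plates; viability was read by CellTiter-Glo ATP content 96 h after transfection. Values are % viability normalised to lipid-only wells (HeyA8, H460, M565) or to siNT1 (3LL).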

[3] = tested on: HeyA8; experiment: as above; settings: concentration: 10 nM; 96 h; Homo sapiens
Experimental: as §1

[4] = tested on: M565; experiment: as above; settings: concentration: 10 nM; 96 h; Mus musculus
Experimental: as §1
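For cell viability relative to lipid-only control in this document: reverse lipid transfection in 384-well plates, in triplicate, of duplexes on a non-toxic 19mer backbone with passenger strand 2′-O-methylated at positions 1 and 2, luminescence viability read-out.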

Row | Sequence | cell viability [1] | cell viability [2] | cell viability [3] | cell viability [4]
1 | UCCUGGAACAUGUAAACCAAA | 69.3 ± 27% | 69.2 ± 1.5% | 72.8 ± 4.4% | 31 ± 5.4%
2 | UCCUGGCACAUGUAAACCAAA | 30.1 ± 6.1% | 17.7 ± 2.6% | 9.86 ± 0.21% | 8.76 ± 0.79%
3 | UCCUGGGACAUGUAAACCAAA | 29 ± 9.9% | 18.7 ± 2.6% | 4.09 ± 0.56% | 14.9 ± 2.3%
4 | UCCUGGUACAUGUAAACCAAA | 61.4 ± 17% | 66.8 ± 6.1% | 27.3 ± 3.9% | 28.8 ± 2.3%
5 | UCCUGUAACAUGUAAACCAAA | 87.9 ± 9% | 94.8 ± 2.7% | 79.2 ± 3.9% | 65.5 ± 18%
6 | UCCUGUCACAUGUAAACCAAA | 56.6 ± 13% | 27.3 ± 2.4% | 58.8 ± 3.3% | 39.1 ± 4.9%
7 | UCCUGUGACAUGUAAACCAAA | 83.8 ± 15% | 55.5 ± 7.4% | 74 ± 6% | 52.9 ± 4%
8 | UCCUGUUACAUGUAAACCAAA | 83.9 ± 12% | 70.4 ± 9% | 63.3 ± 3.5% | 43.2 ± 4.7%
9 | UCCUUAAACAUGUAAACCAAA | 98.2 ± 17% | 71.6 ± 20% | 85.1 ± 3.4% | 94.5 ± 9.1%
10 | UCCUUACACAUGUAAACCAAA | 105 ± 20% | 79.7 ± 7.3% | 53.1 ± 3.2% | 93.9 ± 10%
11 | UCCUUAGACAUGUAAACCAAA | 102 ± 23% | 79.3 ± 5% | 82.4 ± 5.8% | 56.5 ± 11%
12 | UCCUUAUACAUGUAAACCAAA | 99.9 ± 19% | 89.6 ± 2.9% | 71.4 ± 7.2% | 91.8 ± 5.2%
13 | UCCUUCAACAUGUAAACCAAA | 93.7 ± 15% | 77 ± 8.2% | 78 ± 5.2% | 84 ± 1.1%
14 | UCCUUCCACAUGUAAACCAAA | 29.5 ± 3.7% | 39.4 ± 1.8% | 26.7 ± 0.94% | 27.6 ± 2.7%
15 | UCCUUCGACAUGUAAACCAAA | 92.7 ± 16% | 90.6 ± 13% | 69.6 ± 5.6% | 83.8 ± 12%
16 | UCCUUCUACAUGUAAACCAAA | 94.3 ± 14% | 70.1 ± 12% | 41 ± 2.9% | 79 ± 3.3%
17 | UCCUUGAACAUGUAAACCAAA | 98.4 ± 10% | 80.2 ± 5.6% | 84.8 ± 8.5% | 86.3 ± 13%
18 | UCCUUGCACAUGUAAACCAAA | 34.8 ± 5.6% | 24.7 ± 0.77% | 26.3 ± 1.4% | 16.7 ± 2.8%
19 | UCCUUGGACAUGUAAACCAAA | 72.1 ± 11% | 66.4 ± 7.6% | 22.5 ± 1.4% | 44.5 ± 2.9%
20 | UCCUUGUACAUGUAAACCAAA | 48.5 ± 7.4% | 84.9 ± 6.9% | 41.5 ± 5.9% | 77.7 ± 12%
21 | UCCUUUAACAUGUAAACCAAA | 97.6 ± 21% | 96.9 ± 4.5% | 80 ± 3.6% | 94.7 ± 12%
22 | UCCUUUCACAUGUAAACCAAA | 86.4 ± 18% | 57.7 ± 3.9% | 46.3 ± 2.8% | 72 ± 13%

Row | Sequence | cell viability [1] | cell viability [2] | cell viability [3] | cell viability [4]
23 | UCCUUUGACAUGUAAACCAAA | 105 ± 15% | 76 ± 7.7% | 82.2 ± 5.5% | 81.4 ± 8.7%
24 | UCCUUUUACAUGUAAACCAAA | 97.6 ± 23% | 73.1 ± 7.2% | 74.5 ± 2.6% | 140 ± 8.7%
25 | UCGAAAAACAUGUAAACCAAA | 87 ± 12% | 74.1 ± 26% | 87.2 ± 3.3% | 77.4 ± 9.2%
26 | UCGAAACACAUGUAAACCAAA | 88.8 ± 22% | 76.4 ± 9% | 71.7 ± 9.7% | 67.4 ± 3.4%
27 | UCGAAAGACAUGUAAACCAAA | 85.9 ± 16% | 71.4 ± 2% | 85.6 ± 1.1% | 63.8 ± 8.1%
28 | UCGAAAUACAUGUAAACCAAA | 86.6 ± 22% | 72.8 ± 19% | 81.2 ± 3.5% | 65.7 ± 6.4%
29 | UCGAACAACAUGUAAACCAAA | 89.3 ± 18% | 70.3 ± 23% | 84.2 ± 3.4% | 70.1 ± 5.6%
30 | UCGAACCACAUGUAAACCAAA | 62.2 ± 15% | 56.7 ± 5.4% | 73.8 ± 4% | 51.7 ± 2.1%
31 | UCGAACGACAUGUAAACCAAA | 90.8 ± 16% | 79.6 ± 18% | 83.7 ± 5.2% | 62.7 ± 5%
32 | UCGAACUACAUGUAAACCAAA | 80.6 ± 16% | 76.6 ± 17% | 62.4 ± 6.4% | 77.4 ± 2.2%
33 | UCGAAGAACAUGUAAACCAAA | 93.2 ± 16% | 64 ± 0.89% | 83.6 ± 5.5% | 71.1 ± 9.9%
34 | UCGAAGCACAUGUAAACCAAA | 84.4 ± 18% | 51.4 ± 2.9% | 29.7 ± 2.8% | 43.8 ± 5.1%
35 | UCGAAGGACAUGUAAACCAAA | 89.9 ± 17% | 74.8 ± 19% | 79.5 ± 6.7% | 76.7 ± 4.8%
36 | UCGAAGUACAUGUAAACCAAA | 83.8 ± 17% | 60.2 ± 4.8% | 63.5 ± 8.7% | 54.1 ± 5.3%
37 | UCGAAUAACAUGUAAACCAAA | 88.7 ± 24% | 63.3 ± 7.1% | 83.3 ± 5.7% | 76.2 ± 8.5%
38 | UCGAAUCACAUGUAAACCAAA | 91.3 ± 25% | 71.5 ± 5.3% | 44 ± 3.9% | 69.3 ± 7.2%
39 | UCGAAUGACAUGUAAACCAAA | 90.2 ± 16% | 64.8 ± 6.4% | 85.7 ± 6% | 77.3 ± 7.5%
40 | UCGAAUUACAUGUAAACCAAA | 91.7 ± 16% | 66.9 ± 8.9% | 84.4 ± 2.4% | 64.3 ± 9.6%
41 | UCGACAAACAUGUAAACCAAA | 89.5 ± 24% | 68.9 ± 14% | 90.5 ± 7.2% | 69.9 ± 12%
42 | UCGACACACAUGUAAACCAAA | 90.7 ± 18% | 82.1 ± 7.8% | 78.4 ± 4.8% | 67.2 ± 11%
43 | UCGACAGACAUGUAAACCAAA | 90.3 ± 17% | 69.8 ± 8.2% | 93.1 ± 8.4% | 61.8 ± 9.1%
44 | UCGACAUACAUGUAAACCAAA | 85.6 ± 20% | 56.1 ± 8.3% | 84.9 ± 4.5% | 61.4 ± 4.9%
